# According to PubChem BioAssay (Tox21):
# Values joined by “and” are separate entries in the source; they are usually repeats but may differ in a detail not shown here. Equal entries are not always repeated. Inconclusive results, whose numbers are uncertain, are shown with a selection of clear calls. For some assays here: Where the call is inconclusive, the potency comes from a doubtful curve fit. Active and inactive are the calls of the source. Unless noted, calls follow the shape of the dose curve; as a rule, active = well fitted curve in the direction sought with a large enough effect in the repeat runs; inconclusive = weak or mixed curves; inactive = no such curve, though single readings can be large; an effect the other way counts as inactive or inconclusive.
# Assays:
# [1] = qHTS assay to identify small molecule antagonists of the peroxisome proliferator-activated receptor gamma (PPARg) signaling pathway - cell viability counter screen (AID 743194); conditions: PPARg-bla HEK293H viability, CellTiter-Glo luminescence, 17 h, co-treated with 50 nM rosiglitazone; activity change, negative = cytotoxicity: at 62.6 µM (top of the series) unless noted; also: nearly all actives have a fitted effect of over 55% in size; also: potency is read from the fitted curve at half-maximal effect; as to activity change, negative = cytotoxicity: % is scaled to controls: 0 for no effect and ±100 for the full control effect
# Procedure, shortened: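 PPARg-UAS-bla HEK293H cells were plated, rested 5 h at 37 C, then treated with compounds plus rosiglitazone (50 nM final) for 17 h at 37 C; viability was then read by CellTiter-Glo luminescence after 30 min at room temperature.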
# [2] = qHTS assay for small molecule activators of the heat shock response signaling pathway - cell viability counter screen (AID 743209); conditions: HSE-bla HeLa viability, CellTiter-Glo luminescence, 5 h; activity change, negative = cytotoxicity: at 62.6 µM (top of the series) unless noted; also: potency is read from the fitted curve at half-maximal effect; nearly all actives have a fitted effect of over 50% in size
# Procedure, shortened: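 Viability of HSE-bla HeLa cells is measured with CellTiter-Glo in the wells already used for the reporter read. Compound exposure lasts 5 h at 37 C, and luminescence is read after 30 min at room temperature.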
# [3] = qHTS assay for small molecule activators of the heat shock response signaling pathway (AID 743210; active = well fitted activation curve with a large enough effect in the signal ratio in the repeat runs, with a control signal flat, not every such curve was filed as active; inconclusive = weak or mixed curves; the % refers to the signal ratio; also: potency is read from the fitted curve at half-maximal effect); conditions: HeLa HSE-bla reporter, beta-lactamase ratio, 5 h; activation: at 62.6 µM (top of the series)
# Procedure, shortened: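 Activation of heat shock element-controlled beta-lactamase expression is measured in HeLa cells by LiveBLAzer FRET fluorescence, with compound exposure lasting 5 h at 37 C and substrate loading 2.5 h at room temperature.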
# [4] = qHTS assay to identify small molecule antagonists of the peroxisome proliferator-activated receptor delta (PPARd) signaling pathway - cell viability counter screen (AID 743213); conditions: PPARd-bla HEK293H viability, CellTiter-Glo luminescence, 17 h; viability change, negative = cytotoxic: at 62 µM (top of the series) unless noted; also: nearly all actives have a fitted effect of over 50% in size; also: potency is read from the fitted curve at half-maximal effect; as to viability change, negative = cytotoxic: % is scaled to controls: 0 for no effect and ±100 for the full control effect
# Procedure, shortened: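 PPARd-bla HEK293H cells were treated with compounds plus agonist L165041 (300 nM final) for 17 h at 37 C. Viability was then read in the same wells by CellTiter-Glo luminescence after 30 min at room temperature.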
# [5] = qHTS assay to identify small molecule agonists of the farnesoid-X-receptor (FXR) signaling pathway - cell viability counter screen (AID 743218); conditions: FXR-bla HEK293T viability, CellTiter-Glo luminescence, 16 h; viability change, negative = cytotoxic: at 62.6 µM (top of the series) unless noted; also: potency is read from the fitted curve at half-maximal effect; nearly all actives have a fitted effect of over 45% in size
# Procedure, shortened: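 Viability of FXR-bla HEK 293T cells is measured by ATP-based CellTiter-Glo luminescence following 16 h compound treatment at 37 C and a prior 2 h room-temperature beta-lactamase substrate step.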
# [6] = target: Bile acid receptor (Homo sapiens) (UniProt Q96RI1); test: qHTS assay to identify small molecule agonists of the farnesoid-X-receptor (FXR) signaling pathway (AID 743220; active = well fitted activation curve with a large enough effect in the signal ratio in the repeat runs, not every such curve was filed as active; inconclusive = weak or mixed curves, or effect the other way; the % refers to the signal ratio; also: potency is read from the fitted curve at half-maximal effect); conditions: HEK293T FXR-UAS-bla, beta-lactamase FRET ratio, 16 h; activation: at 62.6 µM (top of the series) unless noted
# UniProt Q96RI1, sequence (Q96RI1 whole entry, looked up): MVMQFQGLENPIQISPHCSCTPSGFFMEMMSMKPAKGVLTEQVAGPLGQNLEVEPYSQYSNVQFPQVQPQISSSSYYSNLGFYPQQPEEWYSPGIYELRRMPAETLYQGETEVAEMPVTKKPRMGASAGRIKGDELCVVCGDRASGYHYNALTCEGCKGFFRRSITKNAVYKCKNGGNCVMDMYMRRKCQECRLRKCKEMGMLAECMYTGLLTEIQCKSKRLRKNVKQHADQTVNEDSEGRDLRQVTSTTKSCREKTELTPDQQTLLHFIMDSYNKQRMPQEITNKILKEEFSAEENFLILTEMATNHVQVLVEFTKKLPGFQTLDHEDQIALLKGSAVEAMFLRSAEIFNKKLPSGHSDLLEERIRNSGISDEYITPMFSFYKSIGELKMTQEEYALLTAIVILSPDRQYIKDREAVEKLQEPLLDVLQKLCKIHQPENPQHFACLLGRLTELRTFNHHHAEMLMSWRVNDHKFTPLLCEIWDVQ
# Procedure, shortened: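 FXR-UAS-bla HEK 293T cells carrying a UAS-driven beta-lactamase reporter were plated for 5 h at 37C/5% CO2, then exposed to DMSO-dissolved Tox21 10K compounds for 16 h at 37C. A LiveBLAzer B/G FRET substrate was loaded for 2 h at room temperature before fluorescence reading.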
# [7] = target: Vitamin D3 receptor (Homo sapiens) (UniProt P11473); test: qHTS assay to identify small molecule antagonists of the vitamin D receptor (VDR) signaling pathway (AID 743223; active = well fitted inhibition curve with a large enough effect in the signal ratio in the repeat runs, not every such curve was filed as active; inconclusive = weak or mixed curves, or effect the other way; inactive = no such curve, though single readings can be large or run the other way; the % refers to the signal ratio; also: potency is read from the fitted curve at half-maximal effect); conditions: VDR-UAS-bla HEK293T, beta-lactamase FRET ratio, 16 h; activity change, negative = inhibition: at 61 µM (top of the series) unless noted
# UniProt P11473, sequence (P11473 whole entry, looked up): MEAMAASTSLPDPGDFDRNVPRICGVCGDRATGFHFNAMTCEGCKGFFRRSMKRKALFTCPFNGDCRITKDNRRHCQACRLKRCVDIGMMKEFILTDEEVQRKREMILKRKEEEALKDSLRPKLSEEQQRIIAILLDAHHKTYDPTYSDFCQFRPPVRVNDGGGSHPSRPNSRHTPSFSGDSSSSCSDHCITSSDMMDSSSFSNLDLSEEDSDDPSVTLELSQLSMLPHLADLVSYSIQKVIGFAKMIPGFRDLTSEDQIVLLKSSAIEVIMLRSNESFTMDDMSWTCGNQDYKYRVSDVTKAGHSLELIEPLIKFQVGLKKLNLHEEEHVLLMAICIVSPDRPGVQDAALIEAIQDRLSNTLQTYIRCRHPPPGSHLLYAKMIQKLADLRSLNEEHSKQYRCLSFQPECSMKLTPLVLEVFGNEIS
# Procedure, shortened: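 Cells carrying a VDR-driven beta-lactamase reporter (VDR-bla) were co-treated with compound and 3 nM final 1alpha,25-dihydroxyvitamin D3 for 16 h at 37C; reporter activity was measured as FRET substrate fluorescence after 2 h at room temperature.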
# [8] = qHTS assay to identify small molecule antagonists of the vitamin D receptor (VDR) signaling pathway - cell viability counter screen (AID 743225); conditions: VDR-bla HEK293T viability, CellTiter-Glo luminescence, 16 h; viability change, negative = cytotoxic: at 61 µM (top of the series) unless noted; also: potency is read from the fitted curve at half-maximal effect; nearly all actives have a fitted effect of over 50% in size
# Procedure, shortened: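 HEK293T VDR-bla; cpd + 1a,25-(OH)2D3 3 nM final, 16 h 37C/5% CO2; B/G FRET substrate 2 h RT; then CellTiter-Glo 30 min RT, luminescence.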
# [9] = qHTS assay for small molecule agonists of the antioxidant response element (ARE) signaling pathway (AID 743202; active = well fitted activation curve with a large enough effect in the signal ratio in the repeat runs, not every such curve was filed as active; inconclusive = weak or mixed curves, or effect the other way; inactive = no such curve, though single readings can be large or run the other way; the % refers to the signal ratio; also: potency is read from the fitted curve at half-maximal effect); conditions: HepG2 ARE-bla reporter, beta-lactamase FRET, 16 h; activation: at 73.3 µM (top of the series) unless noted
# Procedure, shortened: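 Steps: seed ARE-bla HepG2 cells (2,000/well); incubate 5 h at 37 C; add compounds by pin tool; incubate 16 h at 37 C; add FRET substrate; read fluorescence after 2 h at RT.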
# [10] = qHTS assay for small molecule agonists of the antioxidant response element (ARE) signaling pathway - cell viability counter screen (AID 743203; calls by dose curve; also: % is scaled to controls: 0 for no effect and ±100 for the full control effect; nearly all actives have a fitted effect of over 55% in size); conditions: ARE-bla HepG2 viability, CellTiter-Glo luminescence, 16 h; viability change, negative = cytotoxic: at 73.3 µM (top of the series)
# Procedure, shortened: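 Viability counter screen: stably transfected ARE-bla HepG2 line, 16 hrs compound exposure at 37C/5% CO2, ATP-based CellTiter-Glo luminescence measured in the reporter wells.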
# [11] = target: Peroxisome proliferator-activated receptor delta (Homo sapiens) (UniProt Q03181); test: qHTS assay to identify small molecule antagonists of the peroxisome proliferator-activated receptor delta (PPARd) signaling pathway (AID 743215; active = well fitted inhibition curve with a large enough effect in the signal ratio in the repeat runs, not every such curve was filed as active; inconclusive = weak or mixed curves, or effect the other way; inactive = no such curve, though single readings can be large or run the other way; the % refers to the signal ratio;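 also: cells stimulated with agonist L165041 at 300 nM final during compound exposure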; also: potency is read from the fitted curve at half-maximal effect; as to ratio activity, negative = inhibition: % is scaled to controls: 0 for no effect and ±100 for the full control effect); conditions: HEK293H PPARd-UAS-bla, beta-lactamase FRET ratio, antagonist, 17 h; ratio activity, negative = inhibition: at 62 µM (top of the series) unless noted
# UniProt Q03181, sequence (Q03181 whole entry, looked up): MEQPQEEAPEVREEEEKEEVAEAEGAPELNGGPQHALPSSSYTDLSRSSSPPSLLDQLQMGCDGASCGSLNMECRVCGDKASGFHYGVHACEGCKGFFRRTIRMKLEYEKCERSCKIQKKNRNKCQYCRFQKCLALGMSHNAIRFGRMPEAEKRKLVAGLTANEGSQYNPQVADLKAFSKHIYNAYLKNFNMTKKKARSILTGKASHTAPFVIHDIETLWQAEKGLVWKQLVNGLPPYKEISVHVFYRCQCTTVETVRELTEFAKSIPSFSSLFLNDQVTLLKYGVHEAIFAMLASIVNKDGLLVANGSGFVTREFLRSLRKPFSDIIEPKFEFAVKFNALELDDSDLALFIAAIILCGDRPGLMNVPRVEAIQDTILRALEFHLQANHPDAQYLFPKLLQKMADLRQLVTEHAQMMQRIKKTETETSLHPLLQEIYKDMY
# Procedure, shortened: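 Plated HEK293H PPARd-bla cells rested 5 h at 37 C and 5% CO2. Compound, then agonist L165041 at 300 nM final, was added; 17 h at 37 C followed. Substrate loading, 2 h room temperature, fluorescence measured.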
# [12] = qHTS assay to identify small molecule agonists of the peroxisome proliferator-activated receptor delta (PPARd) signaling pathway - cell viability counter screen (AID 743211); conditions: PPARd-bla HEK293H viability, CellTiter-Glo luminescence, 17 h; activity change, negative = cytotoxicity: at 62.6 µM (top of the series); also: potency is read from the fitted curve at half-maximal effect; nearly all actives have a fitted effect of over 55% in size
# Procedure, shortened: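 Counter screen for cytotoxicity run in parallel with the PPARd reporter screen. Beta-lactamase reporter HEK293H cells exposed to compounds 17 h; ATP-based CellTiter-Glo luminescence quantified viability.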
# [13] = target: Peroxisome proliferator-activated receptor delta (Homo sapiens) (UniProt Q03181); test: qHTS assay to identify small molecule agonists of the peroxisome proliferator-activated receptor delta (PPARd) signaling pathway (AID 743212; calls by dose curve; also: potency is read from the fitted curve at half-maximal effect); conditions: HEK293H PPARd-UAS-bla, beta-lactamase FRET ratio, 17 h; activation: at 62.6 µM (top of the series) unless noted
# Procedure, shortened: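 Cells expressing a UAS-driven beta-lactamase reporter (PPARd-bla HEK293H) were given test compounds after a 5 h settle and kept at 37 C. Reporter activity was then measured as FRET fluorescence using LiveBLAzer B/G substrate.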
# [14] = qHTS assay to identify small molecule antagonists of the farnesoid-X-receptor (FXR) signaling pathway - cell viability counter screen (AID 743221; active = well fitted cell-killing curve with a large enough effect in the repeat runs, not every such curve was filed as active; inconclusive = weak or mixed curves, or effect the other way; inactive = no such curve, though single readings can be large or run the other way; also: potency is read from the fitted curve at half-maximal effect; nearly all actives have a fitted effect of over 50% in size); conditions: FXR-bla HEK293T viability, CellTiter-Glo luminescence, 16 h; activity change, negative = cytotoxicity: at 62.6 µM (top of the series)
# Procedure, shortened: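 Multiplexed counter screen: viability of FXR-bla HEK 293T cells under agonist stimulation by chenodeoxycholic acid (50 uM, final) and test compound for 16 h at 37 C, measured by CellTiter-Glo luminescence in the reporter wells.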
# [15] = qHTS assay to identify small molecule agonists of the vitamin D receptor (VDR) signaling pathway - cell viability counter screen (AID 743224); conditions: VDR-bla HEK293T viability, CellTiter-Glo luminescence, 16 h; activity change, negative = cytotoxicity: at 62.6 µM (top of the series) unless noted
# Procedure, shortened: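 Compounds were pin-transferred onto VDR-bla cells plated 4 h earlier; following 16 h incubation at 37C, cell viability was quantified by CellTiter-Glo luminescence after 30 min at room temperature.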
# [16] = target: Bile acid receptor (Homo sapiens) (UniProt Q96RI1); test: qHTS assay to identify small molecule antagonists of the farnesoid-X-receptor (FXR) signaling pathway (AID 743217; active = well fitted inhibition curve with a large enough effect in the signal ratio in the repeat runs, not every such curve was filed as active; inconclusive = weak or mixed curves, or effect the other way; inactive = no such curve, though single readings can be large or run the other way; the % refers to the signal ratio; also: potency is read from the fitted curve at half-maximal effect); conditions: HEK293T FXR-UAS-bla, beta-lactamase ratio, CDCA-stimulated, 16 h; activity change, negative = inhibition: at 62.6 µM (top of the series) unless noted
# Procedure, shortened: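 Screen of the Tox21 10K library in quantitative HTS format using FXR-UAS-bla HEK 293T reporter cells. Agonist chenodeoxycholic acid, 50 uM final, added with compounds; 16 h incubation at 37 °C; beta-lactamase FRET fluorescence measured.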
# [17] = target: Vitamin D3 receptor (Homo sapiens) (UniProt P11473); test: qHTS assay to identify small molecule agonists of the vitamin D receptor (VDR) signaling pathway (AID 743222; calls by dose curve; also: % is scaled to controls: 0 for no effect and ±100 for the full control effect); conditions: HEK293T VDR-UAS-bla, beta-lactamase FRET ratio, 16 h; activation: at 63.5 µM (top of the series) unless noted
# Procedure, shortened: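 Fluorescence from cleaved LiveBLAzer B/G FRET substrate served as readout. VDR-bla cells had been treated 16 h at 37C with test compounds in DMSO, following a 4 h settling period, and substrate was loaded for 2 h at RT.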
# Tags tell the direction and shape of the fitted curve or compound fluorescence and quenching.
structure (smiles),measurement,setting,value
CCN(CC)CCOc1ccc(/C(=C(\Cl)c2ccccc2)c2ccccc2)cc1,Potency,[1],"active: 17.7 µM and inconclusive: 15 µM [cytotoxic, partial curve, poor fit]"
same,Potency,[2],active: 39.7 µM and active: 29.8 µM
same,Potency,[3],inconclusive: 46.3 µM and inconclusive: 31.6 µM
same,Potency,[4],"active: 39.7 µM and inconclusive: 33.5 µM [cytotoxic, partial curve, poor fit]"
same,Potency,[5],active: 35.4 µM and active: 26.6 µM
same,Potency,[6],"inconclusive: 50 µM [falling, partial curve, poor fit]"
same,Potency,[7],"active: 31.6 µM and inconclusive: 37.9 µM [fluorescent, partial curve, poor fit]"
same,Potency,[8],active: 22.3 µM and active: 21.3 µM
O=Nc1ccc(NO)cc1,Potency,[1],inactive
same,Potency,[9],active: 6.36 µM
same,Potency,[10],inactive
same,Potency,[4],inactive
same,"ratio activity, negative = inhibition",[11],inconclusive: -20.9% [at 80.4 µM]
same,"activity change, negative = inhibition",[7],inconclusive: -38.9% [at 78.8 µM]
CN(C)CCC=C1c2ccccc2CCc2ccccc21,Potency,[1],"inconclusive: 55 µM [cytotoxic] and inconclusive: 38.9 µM [cytotoxic, partial curve, poor fit] and inconclusive: 23.7 µM [cytotoxic, partial curve]"
same,Potency,[2],"inconclusive: 54.9 µM [cytotoxic, partial curve, poor fit]"
same,Potency,[12],active: 43.7 µM and active: 38.9 µM and active: 29.8 µM
same,Potency,[13],inconclusive: 49 µM [single point]
same,Potency,[4],"active: 24.5 µM and inconclusive: 15 µM [cytotoxic, partial curve, poor fit]"
same,Potency,[11],"inconclusive: 110 µM [inhibitor, partial curve, poor fit]"
same,Potency,[5],"active: 49 µM and active: 19.5 µM and inconclusive: 7.5 µM [cytotoxic, full curve]"
same,Potency,[14],active: 43.7 µM and inconclusive: 24.5 µM and active: 29.8 µM
same,Potency,[7],inconclusive: 55 µM
same,"activity change, negative = inhibition",[7],inconclusive: -37.5%
same,Potency,[15],"inconclusive: 33.5 µM [cytotoxic, partial curve, poor fit]"
CC(C)(C)c1ccc(C(=O)CCCN2CCC(OC(c3ccccc3)c3ccccc3)CC2)cc1,Potency,[1],"inconclusive: 29.8 µM [cytotoxic, partial curve, poor fit]"
same,Potency,[9],inconclusive: 33.5 µM
same,Potency,[3],inconclusive: 31.6 µM
same,Potency,[12],"inconclusive: 26.6 µM [cytotoxic, single point]"
same,Potency,[16],inconclusive: 33.5 µM
same,Potency,[5],active: 26.6 µM
same,Potency,[14],"inconclusive: 29.8 µM [falling, single point]"
same,activation,[17],inconclusive: -31.6%
same,Potency,[7],"inconclusive: 30.1 µM [rising, partial curve]"
same,Potency,[15],"inconclusive: 26.6 µM [cytotoxic, single point]"
